Test results taken from the supplement of paper PMC4166925.
± gives the standard deviation of the averaged measurements. Whole data set: some 33,000 sequences, median “E-score (dimensionless, -0.5 to 0.5)” near -0.046, cut for the highest 2% near 0.36. Some of the results follow.

The sequences below were run on T1, SpTbr T-box DNA-binding domain (GST fusion) (assay: PBM E-score of 8-mer (E-score (dimensionless, -0.5 to 0.5)); Tbr is Tbrain of the sea star Patiria miniata (Pm) or the sea urchin Strongylocentrotus purpuratus (Sp); higher = stronger binding preference; most listed sequences are background and not binding sites). Conditions: the construct has about 5 more residues each side.
T1 sequence: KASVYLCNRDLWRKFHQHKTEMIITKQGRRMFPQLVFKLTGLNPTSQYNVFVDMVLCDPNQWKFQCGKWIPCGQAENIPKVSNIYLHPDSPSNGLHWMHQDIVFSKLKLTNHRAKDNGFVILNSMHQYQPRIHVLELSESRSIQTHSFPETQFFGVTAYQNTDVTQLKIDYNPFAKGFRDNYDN
Method: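 Universal protein-binding microarray (Agilent AMADID 016060, 60-bp probes with a 35-bp variable region) incubated with 200 nM GST-fused Strongylocentrotus purpuratus Tbr T-box DNA-binding domain (residues 362-554) in PBS pH 7.5. Scored for every ungapped 8-mer (given with its reverse complement) as E-score (range -0.5 to 0.5; >0.45 counts as bound) and Z-score of median probe intensity. Two replicate arrays (datasets 1 and 2).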
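Note: protein at 200 nM in PBS on universal double-stranded arrays.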

Sequence	PBM E-score of 8-mer
AGCTAAAT	-0.0908 ± 0.017
ATATGGCC	-0.175 ± 0.028
GAAAACTA	-0.125 ± 0.057
AGAGTTGC	-0.0299 ± 0.027
GGAAACAC	0.0658 ± 0.036
ACGTGGCT	0.0551 ± 0.0085
GCAAGGCA	-0.14 ± 0.028
AATGCTTG	-0.0282 ± 0.054
TTGCTAAA	0.109 ± 0.08
GTCCGCCA	0.0165 ± 0.02
GCAGATGC	-0.209 ± 0.12
AAGCCAAT	-0.214 ± 0.063
CACAGGCG	0.165 ± 0.068
TAACAAAA	0.0559 ± 0.015
TCGTTGCA	-0.0951 ± 0.077
GGCCACAC	0.3886 ± 0.00083
ACATTGTA	0.0327 ± 0.025
GCCGCAGA	-0.227 ± 0.0099
CATTTCAG	-0.00825 ± 0.03
GCTCGCCA	0.231 ± 0.017
ACTGGTAA	-0.182 ± 0.037
GCTCCCAA	-0.102 ± 0.066
AAACGTGA	0.156 ± 0.0067
AGCAGTTG	0.0722 ± 0.002
ACCGCGGC	-0.0624 ± 0.06

Sequence	PBM E-score of 8-mer
CAACCTGC	0.149 ± 0.015
ACTACCGC	0.0104 ± 0.053
AAGGCTCG	-0.153 ± 0.018
CCCTTCGG	-0.254 ± 0.036
AGACTCCC	-0.0835 ± 0.033
TGCCTCAA	-0.148 ± 0.046
CACTCCAC	0.214 ± 0.027
AGACTCCT	-0.214 ± 0.013
ATCTAGGC	-0.3036 ± 0.00067
TCACGAAA	0.14744 ± 0.00011
ACGCTTCG	0.245 ± 0.018
CGCCGGCC	-0.0236 ± 0.021
ACTTTCTG	0.00522 ± 0.034
CGACGAAC	0.0478 ± 0.062
CGCTTATA	-0.138 ± 0.012
CGTCTTTC	0.00271 ± 0.12
AAGCAAAG	-0.0254 ± 0.0077
AGATGCCC	-0.161 ± 0.029
CTGTGTCA	0.247 ± 0.015
GCAGTAGA	-0.136 ± 0.054
CCTATTAC	0.0166 ± 0.023
CGCGATCA	0.268 ± 0.023
CTCTCCAC	0.0528 ± 0.073
ACGTTTCT	-0.0766 ± 0.042
GCGAATGA	0.231 ± 0.038

Sequence	PBM E-score of 8-mer
AATCCAAC	0.014 ± 0.057
ACGACCCT	-0.126 ± 0.062
CACCTCTG	0.3929 ± 0.0014
AGGTGGTA	0.405 ± 0.011
CGTAGTTC	-0.0821 ± 0.066
GGTTAAAC	-0.165 ± 0.0043
ATTTGGGC	-0.181 ± 0.017
GCCGAGGC	-0.0254 ± 0.021
CGAGCACG	-0.0883 ± 0.0044
AGCGAGAT	0.115 ± 0.032
ATCGCTTC	0.0661 ± 0.045
CTTAAGGC	-0.137 ± 0.048
GCAAACCA	-0.125 ± 0.018
ATCCTAGG	-0.228 ± 0.0046
CCTACAGA	0.00408 ± 0.039
ACCCCGGT	-0.0545 ± 0.1
CTGGAGCC	-0.129 ± 0.002
AATGGGGT	0.0277 ± 0.0059
CAGATCTC	-0.147 ± 0.011
AGGCTCCC	-0.131 ± 0.031
ACCAAAAA	-0.101 ± 0.044
AGCACACC	0.325 ± 0.014
AACCAAAC	-0.0869 ± 0.019
ATTTAGGC	-0.0463 ± 0.057
GACGTCTC	-0.243 ± 0.019

Sequence	PBM E-score of 8-mer
GAGTGAAA	0.0605 ± 0.051
TCCAACCA	-0.158 ± 0.0034
ATCTAGGG	-0.144 ± 0.0067
ATCGTGCC	-0.034 ± 0.062
CTGAGCAA	-0.0753 ± 0.059
CCTTGCAC	0.172 ± 0.0042
GAACGTTC	0.103 ± 0.089
GAGCGTAC	-0.177 ± 0.088
ATTGCCAC	0.232 ± 0.0046
AGCGATTA	-0.0349 ± 0.049
AGCCGAAG	-0.259 ± 0.046
ATCCATGA	-0.304 ± 0.058
CAGGACCA	-0.184 ± 0.065
CCGTGGCC	-0.0673 ± 0.016
CTGAAAAG	-0.065 ± 0.042
ACCAGCTA	-0.0508 ± 0.0037
ATTATCCC	-0.108 ± 0.0045
ATGCGCAA	-0.0169 ± 0.032
CGTGAAAG	0.329 ± 0.0083
ACTGCCCA	-0.115 ± 0.092
CTAAGTGC	0.191 ± 0.017
CCATAGGG	-0.0592 ± 0.069
GTCTGCGA	0.015 ± 0.1
AGATGATC	0.000165 ± 0.08
AGTCGTCG	0.0377 ± 0.057

Sequence	PBM E-score of 8-mer
TGCAAGCA	-0.0139 ± 0.019
CGTCATTC	-0.0264 ± 0.0013
CATGCTCA	0.0407 ± 0.052
AGCCTTCG	-0.0252 ± 0.058
CATGCCTC	-0.165 ± 0.086
GTAGCTAA	-0.102 ± 0.037
CAGGCAGA	-0.155 ± 0.042
CTAGCGGC	0.00847 ± 0.04
GCCGCGTA	-0.00698 ± 0.037
AGTAGGCC	-0.21 ± 0.015
AACTGGTC	-0.224 ± 0.026
AGAGGGTG	0.308 ± 0.0036
CGAGGATA	-0.107 ± 0.0043
ATCGTGGA	-0.0288 ± 0.0096
GAAGCGAC	0.105 ± 0.022
AAGCCTAT	-0.166 ± 0.025
AACCAAGG	-0.3061 ± 0.0024
GCCTCAAA	-0.23 ± 0.061
AAAGGCGT	0.262 ± 0.049
CTGCAGGC	-0.12 ± 0.034
GCTAAACA	-0.0537 ± 0.019
CTATGCCA	0.0317 ± 0.017
GGTTATAA	-0.0244 ± 0.035
CAACCACG	0.149 ± 0.067
CCTTACCC	-0.191 ± 0.026

Sequence	PBM E-score of 8-mer
CTTCTATA	-0.219 ± 0.0024
CATACGAG	-0.133 ± 0.0046
AATACCCT	-0.038 ± 0.026
GCGCAGGA	-0.0868 ± 0.053
AAAGCTTG	-0.15 ± 0.055
GGGTTCTA	-0.0635 ± 0.067
AAAAGCCC	-0.281 ± 0.051
AGTGAGGA	0.246 ± 0.028
AAGGTTGT	0.0877 ± 0.038
CCCGCACA	0.207 ± 0.038
TTAACTAA	-0.139 ± 0.062
AACCTGGG	-0.139 ± 0.017
GCAAAGTA	-0.108 ± 0.032
TCCCCACA	0.225 ± 0.033
ACGGATCA	0.0853 ± 0.067
CCGGTATA	-0.0723 ± 0.05
AAATTCTA	-0.145 ± 0.056
GCTTTGCC	-0.108 ± 0.066
AGCGGCGA	0.108 ± 0.049
AGTCAATA	-0.191 ± 0.058
GCTTCCAA	-0.263 ± 0.025
CCCACCCG	0.0685 ± 0.054
AACTTCGT	-0.129 ± 0.032
GTTTTTGA	-0.0187 ± 0.077
ATGTACTC	-0.0866 ± 0.027

Sequence	PBM E-score of 8-mer
ACCCAATG	-0.132 ± 0.07
ACGGCATC	-0.176 ± 0.021
GTTGTGCA	0.0814 ± 0.0043
CCGGTGGC	-0.0144 ± 0.029
AAGACGGT	-0.148 ± 0.051
GCCTTCTA	0.0679 ± 0.0026
AGCCTCAA	-0.141 ± 0.073
ACCTTATC	0.0756 ± 0.077
ACACCTGA	0.4627 ± 0.0023
ACAGGCAG	-0.0306 ± 0.038
GTTAGCGA	0.297 ± 0.0094
AAGGAATC	-0.123 ± 0.0056
ATTACCCG	-0.0835 ± 0.042
ATGCTTCC	-0.1542 ± 0.0011
ACACGGCA	0.0945 ± 0.05
CTCCGCTC	-0.238 ± 0.016
TCAGCTCA	-0.0289 ± 0.0093
CACTGACA	0.233 ± 0.029
CTGTTCAC	0.315 ± 0.012
CATCAATG	0.0357 ± 0.0092
CTCCGGTA	-0.126 ± 0.0032
AAAGTCTG	-0.0833 ± 0.0044
